Here are results for 95 compounds from PubChem BioAssay AID485344 (National Center for Advancing Translational Sciences (NCATS), 2010).

Among all 340,000 compounds or so, about 6,900 (2%) were called active. No stated cut-off is given here; in the data, active means inhibition above about 30%; inactive means below that, where a call was filed. This is a selection; strong and weak results do not stand in their true shares. Entries without a call were filed so in the source.

The target of the assay is D(2) dopamine receptor (Homo sapiens) (UniProt P14416). The experiment in a line: HTS Assay for Allosteric Antagonists of the Human D2 Dopamine Receptor: Primary Screen for Antagonists. Further: 0% is about no effect. Conditions: HEK293 TREx D2 cells, calcium flux, dopamine EC80; at 10 µM; stronger effect = higher value. Put shortly: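 Dopamine at EC80 is the agonist stimulus; test compounds precede it by 180 s. Calcium flux read kinetically in a force-coupled, inducible HEK293 T-REx D2 cell line.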
Sequence of UniProt P14416 (P14416 whole entry, looked up): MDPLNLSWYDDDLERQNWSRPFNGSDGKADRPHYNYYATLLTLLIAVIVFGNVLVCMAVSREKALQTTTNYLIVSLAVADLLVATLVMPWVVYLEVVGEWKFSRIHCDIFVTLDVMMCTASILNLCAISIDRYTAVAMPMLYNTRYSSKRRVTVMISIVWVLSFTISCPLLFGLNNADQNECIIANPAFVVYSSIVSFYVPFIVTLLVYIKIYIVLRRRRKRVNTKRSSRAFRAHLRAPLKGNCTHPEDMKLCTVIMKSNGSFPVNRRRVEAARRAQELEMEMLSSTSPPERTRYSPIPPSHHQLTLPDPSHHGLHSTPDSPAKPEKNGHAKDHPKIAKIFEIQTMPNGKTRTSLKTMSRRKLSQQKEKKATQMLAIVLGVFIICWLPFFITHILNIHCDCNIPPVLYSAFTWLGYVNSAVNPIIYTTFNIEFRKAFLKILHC
For orientation: Calcium flux is commonly read through the fluorescence of an indicator in the cells.
On to `CCc1cccc(CC)c1NC(=O)CCS(=O)(=O)c1ccc(Br)s1`, for which the inhibition – broadly, the relative decrease from the control value, in per cent – was -4.37%. Next, `CCCCOc1ccc2c(C)cc(=O)oc2c1OCCCC`: active: 42.9%; `Cc1cccc(C)c1NC(=O)c1nc(S(C)(=O)=O)ncc1N(Cc1ccc(C(C)(C)C)cc1)Cc1ccco1`: -3.37%; `CCOC(=O)c1ccccc1Nc1nc2ccc(C)cc2n2nnnc12`: 16%. Next, `Cn1cc(-c2cc3n(n2)CCC(=O)N3CCCC(=O)NCc2ccc(F)cc2)c2ccccc21`: 1.03%. Next, `CCOc1ccc(NC(=O)c2oc3ccccc3c2NC(=O)C2CCCCC2)cc1`: -1.38%; `Cc1ccc(NC(=O)Cn2c(=O)c(C(F)(F)F)nc3ccccc32)cc1C`: 4.4%.

As to `CCOC(=O)c1ccccc1NC(=O)Cn1nnc2sc3c(c2c1=O)CCCC3`, the inhibition stood at 22.3%. Next, `COc1ccc(CNC(=O)C2CCCN(S(=O)(=O)N(C)c3ccc(F)cc3)C2)cc1OC` (stereo not given): 1.11%. Next, `O=C(OCc1cc(=O)n2nc(-c3cccs3)sc2n1)c1cccc(Cl)c1`: 7.73%; `CCOC(=O)c1cccc(NC(=O)c2ccc3c(c2)nnn3CC)c1`: -0.411%. Next, `Cc1ccc(C)c(Cn2c(=O)n(CC3CCC(C(=O)N4CCOCC4)CC3)c(=O)c3sccc32)c1` (stereo not given): -1.6%. Regarding `COc1cccc(-c2nnc(SCC(=O)N3CCCCC3)o2)c1`, the inhibition stood at 18.2%. Next, `CCOC(=O)c1c(S(=O)(=O)N2CCCC(C(=O)NCc3ccc(F)cc3)C2)c(C)n(CC)c1C` (stereo not given): -3.48%; `O=C(CCCCn1c(=O)[nH]c2ccsc2c1=O)N1CCN(c2cccc(C(F)(F)F)c2)CC1`: -8.09%; `CC(=O)N1CCc2c(sc3c2c(=O)n(-c2cccc(Cl)c2C)c(=O)n3Cc2ccccc2C)C1`: 0.93%. As for `Cc1ccccc1C(=O)Nc1cccc(OCc2cc(=O)n3c4c(sc3n2)CCCC4)c1`, the inhibition was -0.181%. Next, `COc1ccc(C(=O)c2ccc(N3CCN(C4CC(=O)NC4=O)CC3)cc2)cc1F` (stereo not given): active: 34%.

In the case of `CC1CCN(S(=O)(=O)c2ccc3c(c2)N(CC(=O)NCCN(C)C)C(=O)CO3)CC1`, the inhibition was -1.64%. The value for `Cc1ccc(C)c(CNS(=O)(=O)c2ccc3c(c2)C(C)(C)C(=O)N3C)c1` was -1.78%; that for `COc1ccc2c(c1)c1c(c(=O)n(-c3ccc(C)cc3)c(=O)n1CC(=O)c1ccc(Cl)cc1)n2C` was -3.02%. Next, `COc1ccc(NC(=O)Cn2cc(S(=O)(=O)N3CCC(C)CC3)c3ccccc3c2=O)cc1Cl`: -5.04%; `Cc1ccc(C)c(N2CCN(C(=O)c3ccc(-c4nc(COc5ccccc5)c(C)o4)cc3)CC2)c1`: -1.18%.

With `CCOc1ccc(NC(=O)c2ccc3[nH]c(C)cc(=O)c3c2)cc1`, the inhibition was determined as 6.5%. Turning to `CCOC(=O)c1c(-c2ccc(OC)cc2)cn2ccccc12`, the inhibition was active: 62%. The value for `COc1ccc2c(CNCCc3ccccc3C)c(C(=O)O)n(Cc3ccccc3C)c2c1` was 10.3%; that for `CCOc1ccc(NC(=O)c2cnn(-c3ccccc3)c2-n2cccc2)cc1` was 6.18%. Next, `CCN(CC)C(=O)CSc1nc2c(c(=O)n(C)c(=O)n2C)n1Cc1ccccc1`: -1.65%; `N#Cc1c(-c2ccccc2)cc(-c2ccccc2)nc1SCC(O)CS(=O)(=O)Cc1ccccc1` (stereo not given): 10.4%. In the case of `O=C(Cn1cc(SCc2ccc(F)cc2)c2ccccc21)N1CCCCCC1`, the inhibition was -2.35%. Next, `O=C(CCc1ccccc1)N(Cc1cccnc1)c1nc2ccc(F)cc2s1`: 2.13%; `CCOCCCNC(=O)C1CCCN(c2ncnc3onc(C)c23)C1` (stereo not given): 7.14%; `CCc1cc(=O)oc2cc(OCC(=O)NCCCn3ccnc3)ccc12`: active: 37.4%. Next, `CCOC(=O)C1CCCN(C(=O)c2ccccc2NC(=O)c2nsc3ccccc23)C1` (stereo not given): -18.3%; `Cc1ccccc1Cn1nnc2c(=O)[nH]c(C3CCCN(C(=O)c4ccc(C(C)(C)C)cc4)C3)nc21` (stereo not given): 1.5%; `O=C(c1ccc2c(c1)N(Cc1cccc(Cl)c1)C(=O)c1ccccc1S2(=O)=O)N1CCCC1`: -2.75%.

Turning to `Cc1ccc(NC(=O)CN(C)C(=O)COc2cc(F)ccc2[N+](=O)[O-])cc1`, the inhibition was active: 61.9%.

Take `COc1ccc(OC)c(CCNC(=O)c2cnn(-c3ccccc3)c2-n2cccc2)c1`: the inhibition is 1.35%.

As for `O=C(CCS(=O)(=O)c1cc(Br)cc2c1N(C(=O)C1CC1)CC2)N1CCN(c2ccccc2)CC1`, the inhibition was -25.1%.

For `COc1ccc(CCNCC(=O)Nc2c(C)cc(C)cc2C)cc1OC`, the inhibition was active: 44.9%. `CCc1ccc(NC(=O)Cn2c(=O)n(Cc3ccc(C)cc3)c(=O)c3cccnc32)cc1`: the inhibition was -0.628%.

For the compound `Cc1ccccc1C(=O)Nc1nnc(S(=O)(=O)N2CCc3ccccc32)s1`, the inhibition is -20.2%. The value for `CC(=O)N1CCCc2cc(S(=O)(=O)N3CCC(C(=O)N(C)C4CCCCC4)CC3)ccc21` was -7.29%.

Take `CCOC(=O)c1ccccc1NC(=O)N1CCCn2nc(C)cc21`: the inhibition came out at 6.11%.

With `Cc1cc(C)cc(N2C(=O)CSC23C(=O)N(CC(=O)NC2CCCCC2)c2ccccc23)c1` (stereo not given), the inhibition was determined as 1.04%. The value for `COc1ccc(C(=O)Nc2cccc(OCc3cc(=O)n4c5c(sc4n3)CCCC5)c2)cc1OC` was 4.16%; that for `CCOC(=O)N1CCN(c2ncc3c(n2)CC(c2ccc(OC)c(OC)c2)CC3=O)CC1` (stereo not given) was 8.35%; that for `O=C1c2ccccc2NC(c2ccco2)N1NS(=O)(=O)c1ccccc1` (stereo not given) was active: 32.9%. Next, `Cc1noc(/C=C/c2ccccc2F)c1S(=O)(=O)N1CCC(C(=O)NCc2ccco2)CC1`: 19.2%; `CCCCOc1ccccc1NC(=O)CC1Sc2ccccc2NC1=O` (stereo not given): -17.4%. Next, `COc1ccccc1Cc1nc2ccccc2nc1SCC(=O)N1CCCCC1`: 0.666%; `COc1ccc(NC(=O)c2sc3nc4n(c(=O)c3c2C)CCC4)c(OC)c1`: -7.77%; `O=C(N/N=C/C(Br)=C\c1ccccc1)c1ccc2nc[nH]c2c1`: active: 34.4%. For `COc1cc2c(C(=O)N3CCN(c4ccc(F)cc4)CC3)cn(CC(C)C)c(=O)c2cc1OC`, the inhibition was -6.8%. The value for `CCOc1ccccc1NC(=O)C1CCCN(S(=O)(=O)c2cccs2)C1` (stereo not given) was 10.8%.

Consider `Cc1ccc(NS(=O)(=O)c2ccc3nc(-c4ccccc4)[nH]c3c2)cc1Cl`, for which the inhibition amounted to 9.51%. Take `COc1ccc(Br)cc1CNC(=O)C1CCN(c2nnc(-n3cccc3CNc3ccc(C)cc3)s2)CC1`: the inhibition amounted to 3.79%. Next, `CC(Cc1ccc(Cl)cc1)N1CCC(n2nccc2NC(=O)C2CCCC2)CC1` (stereo not given): active: 31.1%; `CSc1nn(CC(=O)Nc2ccc(C)cc2C)c(N)c1S(=O)(=O)c1ccc(Cl)cc1`: 6.25%; `CCn1cc(C(=O)N(C)c2cc(C)ccc2C)c2cc(OC)c(OC)cc2c1=O`: 11.1%.

For the compound `O=S(=O)(Nc1nc2n(n1)C(c1ccc(F)cc1)C=C(c1ccc(Cl)cc1)N2)c1ccccc1` (stereo not given), the inhibition came out at 15.2%. The value for `Cc1ccc(-c2cn3c(n2)sc2cc(C(=O)NC4CCCCCC4)ccc23)cc1` was 8.44%; that for `COCCCNC(=O)C1CCN(Cc2cc3ccccc3n2Cc2cccc(Cl)c2)CC1` was 3.58%; that for `Cc1cc(C)n2nc(CNC(=O)c3cccc(N(C)C)c3)nc2n1` was 22.4%. Next, `Cc1noc2ncnc(NCCc3ccccc3)c12`: -6.4%; `CCC12CN3CC(CC)(CN(C1)C3c1c[nH]c3ccccc13)C2=O` (stereo not given): -6.28%; `COc1ccc(N2CCN(C(=O)c3ccc4c(c3)CCN4S(=O)(=O)c3ccccc3)CC2)cc1`: 14.8%. Consider `CC(NCc1ccc2c(c1)n(C)c(=O)n2C)c1ccccc1` (stereo not given), for which the inhibition is -13.9%.

Take `COc1cc(NC(=O)CSc2cc(=O)n(C)c3ccccc23)cc(OC)c1OC`: the inhibition is -16.1%.

In the case of `CCOc1ccc(NC(=O)CCc2c(C)nc3c4c(C)cc(C)nc4nn3c2C)cc1`, the inhibition is -11.5%. With `CN(Cc1ccccc1)c1ccc2cc(S(=O)(=O)N3CCCCC3)ccc2n1`, the inhibition was -0.932%. Next, `Cc1ccc(C)c(CSc2cn(CC(=O)N3CCCC3)c3ccccc23)c1`: -14.1%; `COc1ccc2cc(-c3nc(-c4ccc(N(C)C)cc4)no3)c(=O)oc2c1`: -5.73%; `COc1ccc(-c2nc3ccccc3o2)cc1NC(=O)c1cccc2c(Cl)cccc12`: -1.34%. The value for `CCOc1ccc(N2CC(NC(=O)Cc3cccs3)CC2=O)cc1` (stereo not given) was -21.6%; that for `CCOc1ccc(CCNC(=O)CCn2c(=O)c3cccn3c3ccc(F)cc32)cc1OCC` was -4.87%; that for `Cc1nn(C)c2c1c(-c1ccccc1)cc(=O)n2Cc1ccc(F)cc1Cl` was -3.19%.

Take `CCN(CC)C(=O)Cn1c(=O)n(-c2ccc(Cl)cc2)c(=O)c2c3c(sc21)CCCCC3`: the inhibition came to 7.02%. The value for `CC(C)(C)C1(c2ccccc2)NC(=O)N(CC(=O)N2CCOCC2)C1=O` (stereo not given) was active: 43.8%. The value for `CCCN(Cc1cccs1)C(=O)Nc1cc(C)cc(C)c1` was 6.63%; that for `CCc1ccccc1Nc1nn2c(=O)c3ccc(C(=O)NC4CCC(C)CC4)cc3nc2s1` (stereo not given) was 12.6%. The value for `Cc1oc(-c2ccccc2)nc1Cn1c(SCc2cccc(C(F)(F)F)c2)nc2cccnc21` was 11%; that for `CCc1cnc2c(c1SCc1c(F)cccc1Cl)c(=O)n(C)c(=O)n2C` was 3.48%. For `COc1ccc(-n2ncc(C(=O)N3CCN(Cc4ccccc4)CC3)c2C2CCN(C(=O)OC(C)(C)C)CC2)cc1`, the inhibition is -3.6%.

`CCOC(=O)c1ccc(NC(=O)CC2C(=O)N(c3ccccc3)C(=O)N2Cc2ccc(C)cc2)cc1` (stereo not given): the inhibition was found to be 22.2%. The value for `Cc1nn(C(=O)COc2ccc(Cl)cc2)c(C)c1Sc1ccccc1` was -4.02%; that for `COc1ccc(C(=O)Nc2cnc3ccccn3c2=O)cc1` was -22.1%; that for `CCOC(=O)c1c(NC(=O)c2ccc(S(=O)(=O)N3CCC(C)CC3)cc2)sc2c1CCN(C(C)C)C2` was 2.17%.

For `COc1ccc(CCNC(=O)CCCn2c(=O)c3ccccc3n(CC(=O)Nc3cccc(C)c3)c2=O)cc1OC`, the inhibition was -16.6%. Consider `CC(C)(C)C(=O)Nc1ccc(-c2nc3ccccc3s2)cc1`, for which the inhibition is 13.1%.

Consider `CCc1ccc(CN2C(=O)c3ccccc3C2C(=O)NC2CCCCCC2)cc1` (stereo not given), for which the inhibition worked out at 11.4%. Next, `CCOc1ccc(-c2c(C)nn3c(C)c(C(=O)NCc4cccc(OC)c4)cnc23)cc1OCC`: -9.75%; `N#Cc1ccc(OC(=O)c2cc(-c3ccc(Cl)cc3)on2)cc1`: -13.8%.

With `O=C(CCC1N=C2c3ccccc3N=C(SCC(=O)Nc3ccccc3F)N2C1=O)NCc1ccco1` (stereo not given), the inhibition is 0.806%. Next, `Cc1cccc(NS(=O)(=O)c2ccc3[nH]c(=O)[nH]c3c2)c1C`: 3.52%.
